Where “and” joins values, the source holds several entries; their conditions need not be identical. Equal values may be shown once. The shares of active, inactive and inconclusive entries below differ from those in the screen. For some of these results: Potencies of inconclusive entries are doubtful fits and often do not repeat. Calls of active or inactive are those of the source. Unless noted, calls come from the whole dose curve; as a rule, active = well fitted curve in the direction sought with a large enough effect in the repeat runs; inconclusive = weak or mixed curves; inactive = no such curve, though single readings can be large; an effect the other way counts as inactive or inconclusive.
Columns and labels:
[1] = qHTS assay to identify small molecule antagonists of the retinoid acid receptor (RAR) signaling pathway - cell viability counter screen (AID 1159551); note: nearly all actives have a fitted effect of over 35% in size
Outline: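 C3RL4 cells were seeded overnight at 37 C, then treated with compounds plus 1 uM (final) retinol for 6 h at 37 C. Viability was read as ATP by CellTiter-Glo luminescence after 30 min at room temperature.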

[2] = qHTS assay to identify small molecule agonists of the retinoic acid receptor (RAR) signaling pathway (AID 1159553); settings: C3RL4 RARE luciferase reporter, agonist, 6 h; activation: at 73.3 µM (top of the series) unless noted; for activation: % is set by controls: 0 for no effect and ±100 for the full control effect
Outline: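 C3RL4 cells carrying a RARE luciferase reporter were plated overnight at 37 C, then exposed to compounds in DMSO for 6 hr at 37 C and 5% CO2. Luminescence was read 30 min after luciferase reagent addition at room temperature.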

[3] = qHTS assay to identify small molecule antagonists of the estrogen related receptor (ERR) signaling pathway from Tox21 library - cell viability counter screen (AID 1224834); note: nearly all actives have a fitted effect of over 30% in size
Outline: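 ERR reporter cells were plated 6 h before compound addition, then exposed to test compounds in DMSO for 17.5 h at 37 C. Viability was read as CellTiter-Fluor fluorescence after a 30-minute incubation at 37 C.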

[4] = qHTS assay to identify small molecule agonists of the constitutive androstane receptor (CAR) signaling pathway - cell viability counter screen (AID 1224836); note: nearly all actives have a fitted effect of over 45% in size
Outline: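 HepG2 cells stably carrying hCAR and a CYP2B6-2.2kb reporter; 15-concentration compounds plus PK11195 (final 0.75 uM), 23 hr at 37 C/5% CO2. Viability read by CellTiter-Fluor fluorescence.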

[5] = qHTS assay to identify small molecule antagonists of the constitutive androstane receptor (CAR) signaling pathway - cell viability counter screen (AID 1224837); note: nearly all actives have a fitted effect of over 45% in size
Outline: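 HepG2 cells stably expressing hCAR and a CYP2B6-2.2kb reporter were plated and pre-incubated 4 hr at 37 C/5% CO2, then given compounds at 15 concentrations plus 50 nM CITCO (final). After 23 hr, viability was read by CellTiter-Fluor fluorescence.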

[6] = qHTS assay to identify small molecule antagonists of the estrogen related receptor signaling pathway with the pleiotropic PPARgamma coactivator (PGC) from Tox21 10K library - cell viability counter screen (AID 1224840; active = well fitted cell-killing curve with a large enough effect in the repeat runs, not every such curve was filed as active; inconclusive = weak or mixed curves, or effect the other way; inactive = no such curve, though single readings can be large or run the other way; note: nearly all actives have a fitted effect of over 40% in size)
Outline: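 PGC/ERR cells were seeded at 2,000 cells/well and left 6 hours at 37 C/5% CO2 before pin-tool addition of compounds in DMSO. After 17.5 hours at 37 C, CellTiter-Fluor was added and fluorescence read 30 minutes later.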

[7] = qHTS assay to identify small molecule agonists of the hypoxia (HIF-1) signaling pathway - cell viability counter screen (AID 1224844; calls by dose curve; note: nearly all actives have a fitted effect of over 50% in size)
Outline: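 HRE-bla ME-180 cells in medium with 0.5% dialyzed FBS were preincubated 5 hrs at 37C, exposed to compounds for 17 hrs, then viability was read as CellTiter-Glo luminescence after 30 min at room temperature, in the reporter wells.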

[8] = biological target: Nuclear receptor subfamily 1 group I member 3 (Homo sapiens) (UniProt Q14994); test: qHTS assay to identify small molecule antagonists of the constitutive androstane receptor (CAR) signaling pathway (AID 1224838); note: nearly all actives have a fitted effect of over 40% in size
Outline: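 HepG2 cells stably co-transfected with hCAR and a CYP2B6-2.2kb luciferase reporter were seeded 4 h before compound addition at 15 concentrations. Cells were stimulated with 50 nM CITCO (final) for 24 h at 37 C; luciferase luminescence was then read.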

[9] = biological target: Luciferin 4-monooxygenase (Photinus pyralis) (UniProt P08659); test: qHTS assay to identify small molecule inhibitors of firefly luciferase (AID 1224835); note: nearly all actives have a fitted effect of over 25% in size
Outline: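 Quantitative HTS format; KM concentrations of both substrates. Purified P. pyralis FLuc activity quantified from luminescence images.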

[10] = biological target: Thyrotropin receptor (Homo sapiens) (UniProt P16473); test: qHTS assay to identify small molecule agonists of the thyroid stimulating hormone receptor (TSHR) signaling pathway (AID 1224843; calls by dose curve; note: nearly all actives have a fitted effect of over 45% in size; for activation: % is set by controls: 0 for no effect and ±100 for the full control effect); settings: TSHR-HEK293 cells, cAMP HTRF, agonist mode, 30 min; activation: at 92.4 µM (top of the series) unless noted
Outline: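 TSHR-expressing HEK293 cells (800 per well) were exposed to compounds for 30 min at room temperature. cAMP was then detected by HTRF competition with cAMP-d2 and anti-cAMP cryptate, read after 1 h at room temperature. Fifteen concentrations, triplicate.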

[11] = biological target: Nuclear receptor subfamily 1 group I member 3 (Homo sapiens) (UniProt Q14994); test: qHTS assay to identify small molecule agonists of the constitutive androstane receptor (CAR) signaling pathway (AID 1224839); note: nearly all actives have a fitted effect of over 15% in size
Outline: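 HepG2 cells stably co-transfected with hCAR and a CYP2B6-2.2kb luciferase reporter; compounds at 15 concentrations with 0.75 uM PK11195 present. After 24 hr at 37 C, luciferase read by ONE-Glo luminescence.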

[12] = qHTS assay to identify small molecule agonists of the estrogen related receptor signaling pathway with the pleiotropic PPARgamma coactivator (PGC) from Tox21 10K library (AID 1224842); note: nearly all actives have a fitted effect of over 15% in size; for activation: % is set by controls: 0 for no effect and ±100 for the full control effect
Outline: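 PGC/ERR reporter cells (NTP line) were seeded 2,000 per well, rested 6 h at 37 C/5% CO2, then pin-dosed with compounds in DMSO for 18 h at 37 C; luciferase read by One-Glo luminescence after 30 min at room temperature.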

[13] = qHTS assay to identify small molecule antagonists of the estrogen related receptor (ERR) signaling pathway (AID 1224819; note: nearly all actives have a fitted effect of over 50% in size)
Outline: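 ERR reporter cells were plated at 2,000 cells/well and left 6 h at 37 C/5% CO2 before pin-tool transfer of compounds in DMSO. After 18 h at 37 C, One-Glo was added and luminescence was read 30 min later at room temperature.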

[14] = test system: estrogen-related receptor alpha (ERRalpha) with PGC-1alpha coactivator, human; test: qHTS assay to identify small molecule antagonists of the estrogen related receptor signaling pathway with the pleiotropic PPARgamma coactivator (PGC) (AID 1224821; calls by dose curve; note: nearly all actives have a fitted effect of over 50% in size)
Outline: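 Quantitative HTS for antagonism: PGC/ERR cells received compounds after 6 h attachment and were incubated 18 h at 37 C, with luminescence (One-Glo) as the endpoint.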

[15] = qHTS assay to identify small molecule antagonists of the estrogen related receptor signaling pathway with the pleiotropic PPARgamma coactivator (PGC) cell viability counter screen (AID 1224822)
Outline: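 PGC/ERR cells were seeded at 2,000 cells/well, rested 6 h at 37 C/5% CO2, then given compounds in DMSO by pin tool and incubated 17.5 h at 37 C. Viability came from CellTiter-Fluor fluorescence after 30 min.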
Potency is the fitted concentration of half-maximal effect; tags give direction and shape of the fitted curve or compound fluorescence and quenching.

Sequence of UniProt P16473 (P16473 whole entry, looked up): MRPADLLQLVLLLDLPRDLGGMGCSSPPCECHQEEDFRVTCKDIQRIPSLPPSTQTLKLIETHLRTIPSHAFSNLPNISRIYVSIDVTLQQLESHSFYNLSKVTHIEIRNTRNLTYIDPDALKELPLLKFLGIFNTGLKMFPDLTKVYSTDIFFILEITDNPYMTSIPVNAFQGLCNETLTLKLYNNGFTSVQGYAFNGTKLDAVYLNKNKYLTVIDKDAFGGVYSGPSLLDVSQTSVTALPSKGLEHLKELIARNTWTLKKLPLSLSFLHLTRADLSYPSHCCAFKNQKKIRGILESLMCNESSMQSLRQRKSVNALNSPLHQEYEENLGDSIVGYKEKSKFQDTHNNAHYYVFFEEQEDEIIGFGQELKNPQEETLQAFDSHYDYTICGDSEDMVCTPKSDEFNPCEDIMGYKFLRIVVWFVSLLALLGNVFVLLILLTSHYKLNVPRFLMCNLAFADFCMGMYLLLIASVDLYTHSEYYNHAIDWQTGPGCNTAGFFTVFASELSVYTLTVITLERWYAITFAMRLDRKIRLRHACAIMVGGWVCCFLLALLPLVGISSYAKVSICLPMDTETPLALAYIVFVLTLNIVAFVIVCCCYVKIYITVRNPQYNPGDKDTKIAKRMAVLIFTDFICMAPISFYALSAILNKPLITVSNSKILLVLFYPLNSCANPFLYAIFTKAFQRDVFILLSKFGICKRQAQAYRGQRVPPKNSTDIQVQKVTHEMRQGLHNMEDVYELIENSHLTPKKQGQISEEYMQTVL
Sequence of UniProt Q14994 (Q14994 whole entry, looked up): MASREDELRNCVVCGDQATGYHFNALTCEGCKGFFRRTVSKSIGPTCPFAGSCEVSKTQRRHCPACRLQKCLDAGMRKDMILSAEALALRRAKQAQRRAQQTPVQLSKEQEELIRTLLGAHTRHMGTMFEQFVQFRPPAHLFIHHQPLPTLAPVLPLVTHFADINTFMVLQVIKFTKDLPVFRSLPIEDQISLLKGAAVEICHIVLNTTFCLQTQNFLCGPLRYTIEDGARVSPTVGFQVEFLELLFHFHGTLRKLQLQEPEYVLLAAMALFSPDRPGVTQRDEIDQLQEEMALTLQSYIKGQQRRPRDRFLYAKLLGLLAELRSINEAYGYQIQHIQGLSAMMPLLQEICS
Sequence of UniProt P08659 (P08659 whole entry, looked up): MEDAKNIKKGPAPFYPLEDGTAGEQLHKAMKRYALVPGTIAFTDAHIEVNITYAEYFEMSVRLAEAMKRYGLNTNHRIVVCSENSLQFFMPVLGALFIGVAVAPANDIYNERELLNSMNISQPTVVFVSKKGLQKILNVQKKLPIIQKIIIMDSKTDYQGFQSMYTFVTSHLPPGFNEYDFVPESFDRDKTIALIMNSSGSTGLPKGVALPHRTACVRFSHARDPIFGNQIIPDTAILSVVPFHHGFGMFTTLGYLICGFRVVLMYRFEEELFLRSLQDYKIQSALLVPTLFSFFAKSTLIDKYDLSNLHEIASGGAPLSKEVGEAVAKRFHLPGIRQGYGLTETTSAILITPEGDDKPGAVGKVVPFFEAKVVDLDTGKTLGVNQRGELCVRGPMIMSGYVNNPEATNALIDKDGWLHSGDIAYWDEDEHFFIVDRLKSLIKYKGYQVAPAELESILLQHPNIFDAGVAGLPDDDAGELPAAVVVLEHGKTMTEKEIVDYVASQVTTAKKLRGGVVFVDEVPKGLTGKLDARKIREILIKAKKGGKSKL

With Nc1ccc2c(c1)CN1C(=O)c3ccccc3C1=N2 the Potency [1] was active: 14.6 µM, the Potency [2] was active: 0.366 µM and the Potency [3] was inconclusive: 5.17 µM [rising, partial curve]. For the same molecule, the Potency [4] was inconclusive: 13 µM [rising, partial curve], the Potency [5] was inconclusive: 13 µM [rising, partial curve] and the Potency [6] was inconclusive: 10.3 µM [rising, partial curve]. For the same molecule, the Potency [7] was inconclusive: 9.28 µM [cytotoxic].

For CCCCCCCCCCCCCC[P+](CCCC)(CCCC)CCCC (tested in a mixture with another compound), the Potency [1] was active: 27.5 µM, the Potency [2] was inconclusive: 3.88 µM [inhibitor, partial curve, poor fit] and the Potency [4] was active: 19.4 µM. For the same molecule, the Potency [5] was active: 19.4 µM, the Potency [8] was active: 17.3 µM and the Potency [7] was active: 15.6 µM.

For O=C1C=CC(=O)N1c1ccccc1, the Potency [1] was active: 30.6 µM, the Potency [2] was inconclusive: 12.2 µM [inhibitor, full curve] and the Potency [3] was active: 43.3 µM. The Potency [5] was active: 27.3 µM.

In the case of CCCCCCCCCCn1cc[n+](CCCCCCCCCC)c1C, the Potency [1] is reported as active: 61.2 µM, the Potency [2] is reported as inconclusive: 77 µM [inhibitor, single point] and the Potency [9] is reported as inconclusive: 89.5 µM [inhibitor, single point]. The Potency [4] was active: 30.7 µM, the Potency [5] was active: 54.5 µM and the Potency [8] was active: 30.7 µM. For the same molecule, the Potency [10] was inconclusive: 9.7 µM [inhibitor, partial curve] and the Potency [7] was inconclusive: 55 µM [cytotoxic, single point].

In the case of C[C@@H](NCCCc1cccc(C(F)(F)F)c1)c1cccc2ccccc12, the Potency [1] is reported as active: 33.5 µM, the Potency [2] is reported as inconclusive: 29.8 µM [inhibitor, partial curve] and the Potency [4] is reported as inconclusive: 33.5 µM [cytotoxic, single point]. For the same molecule, the Potency [5] was inconclusive: 33.5 µM [cytotoxic, single point], the Potency [8] was inconclusive: 33.5 µM [inhibitor, single point] and the Potency [6] was inconclusive: 29.8 µM [cytotoxic]. For the same molecule, the Potency [10] was “inactive”.

For O=C(Nc1ccc(Cl)cc1)Nc1ccc(Cl)c(Cl)c1, the Potency [1] was inconclusive: 24.2 µM [cytotoxic, full curve] and inconclusive: 19.3 µM [cytotoxic, full curve] and inconclusive: 29.8 µM [cytotoxic, partial curve, poor fit], the Potency [2] was inconclusive: 1.92 µM [activator, full curve] and active: 3.06 µM and active: 3.35 µM and the Potency [4] was inconclusive: 30.5 µM [cytotoxic, full curve] and inconclusive: 18.8 µM [cytotoxic, partial curve]. For the same molecule, the Potency [5] was inconclusive: 38.4 µM [cytotoxic, partial curve] and active: 15.4 µM and inconclusive: 21.1 µM [cytotoxic, partial curve], the Potency [11] was inconclusive: 7.66 µM [activator, partial curve] and the Potency [6] was inconclusive: 12.1 µM [cytotoxic, full curve] and inconclusive: 6.86 µM [cytotoxic, full curve] and inconclusive: 11.9 µM [cytotoxic, full curve]. The Potency [12] was “inactive” and the Potency [7] was inconclusive: 1.38 µM [cytotoxic, partial curve, poor fit].

With CCCCCCCCCC[N+](C)(CCCCCCCCCC)CCC[Si](OC)(OC)OC the Potency [1] was active: 30.6 µM, the activation [2] was inconclusive: 7.22% [phenotype inactive] and the Potency [3] was inconclusive: 21.7 µM [cytotoxic, partial curve, poor fit]. The Potency [8] was “inactive”, the Potency [6] was inconclusive: 27.3 µM [cytotoxic, partial curve] and the activation [10] was inconclusive: -29.1%.

With O=C1c2c(O)ccc(O)c2C(=O)c2c(NCCNCCO)ccc(NCCNCCO)c21 the Potency [1] was inconclusive: 26.6 µM [cytotoxic, single point], the Potency [2] was inconclusive: 15 µM [inhibitor, partial curve] and the Potency [13] was active: 1.44 µM. For the same molecule, the Potency [14] was inconclusive: 16.8 µM [inhibitor], the Potency [15] was inconclusive: 5.96 µM [cytotoxic, full curve] and the Potency [3] was active: 3.35 µM. The Potency [4] was active: 3.76 µM, the Potency [5] was active: 4.22 µM and the Potency [6] was inconclusive: 3.35 µM [cytotoxic, full curve]. The Potency [12] was inconclusive: 0.298 µM [activator, partial curve], the activation [10] was inconclusive: -4.2% [at 42.5 µM] and the Potency [7] was inconclusive: 8.49 µM [cytotoxic, partial curve].
